This is an account of results in the supplement of paper PMC10441789.

Some of the results follow. Antibody binding of pooled human sera (four to six donors per pool; dilution not stated) to peptides of the Trypanosoma cruzi antigen TSSA on microarrays. Quantile-normalised fluorescence in arbitrary units, mean of duplicate arrays; higher = more binding. No active / inactive call. The uninfected pools are read here as the healthy donors of the same country. The strongest signals lie near the top of the scale (about 60,000).

This assay has as its system pooled sera of uninfected people, Colombia. The experiment in a line: antibody binding signal (normalised fluorescence) (arbitrary fluorescence units); higher = stronger serum antibody binding to peptide. The protocol: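 Microarray of 15-residue peptides over residues 30-55 of Trypanosoma cruzi TSSAII, each with 1 to 10 substitutions at naturally variable positions, probed with one serum pool per country.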
Turning to GKEKKPAAGEAPSQP, the antibody binding signal was determined as 81.8.

GTENKTATGEAPSQP registered an antibody binding signal of 235.

Regarding GTDNKTAAGGAPSPS, the antibody binding signal is 219.

In the case of KTATGGAPSQSGASS, the antibody binding signal stood at 110.

In turn, PSGKENKAATGETPS registered an antibody binding signal of 903.

As for PSGTDNKPATGGAPS, the antibody binding signal turned out to be 469.

The sequence EKKPAAGGTPSQSGA yielded an antibody binding signal of 159.

On to ENKAAAGGTPSQSGA, for which the antibody binding signal is 291.

For the sequence SGKEKKTATGEAPSQ, the antibody binding signal is 125.

Sequence KTATGETPSQSGASS yielded an antibody binding signal of 168.

For ENKAAAGGAPSQPGA, the antibody binding signal turned out to be 254.

GTENKPATGGTPSQS yielded an antibody binding signal of 318.

EKKTATGGAPSQSGA displayed an antibody binding signal of 130.

As to GTDNKAATGETPSQS, the antibody binding signal was found to be 124.

The sequence KDKKAATGEAPSPPG displayed an antibody binding signal of 176.

TPPSGKEKKPAAGGA registered an antibody binding signal of 218.

GTDKKPATGEAPSPP gave an antibody binding signal of 277.

The sequence GKDNKTAAGETPSQP gave an antibody binding signal of 302.

Turning to GTENKAAAGGTPSPS, the antibody binding signal turned out to be 557.

In turn, GKENKAATGGAPSQP had an antibody binding signal of 119.

With TEKKPAAGETPSPPG, the antibody binding signal was found to be 149.

The sequence GTDKKTAAGGAPSQP yielded an antibody binding signal of 171.

In turn, KPAAGGAPSPPGASS came in with an antibody binding signal of 131.

PPSGKEKKTAAGEAP showed an antibody binding signal of 313.

Sequence PSGTDNKTAAGEAPS returned an antibody binding signal of 342.

The sequence TDKKTATGGTPSQPG showed an antibody binding signal of 877.

Turning to TPPSGTDNKTAAGGA, the antibody binding signal worked out at 305.

TEKKTATGEAPSQSG returned an antibody binding signal of 104.

The sequence DKKPATGGTPSQSGA displayed an antibody binding signal of 297.

The sequence TENKAAAGGAPSQSG showed an antibody binding signal of 218.

In the case of STPPSGTEKKAATGG, the antibody binding signal is 588.

Consider SGTENKPATGGAPSQ, for which the antibody binding signal was determined as 184.

In the case of ISTPPSGTDNKTAAG, the antibody binding signal turned out to be 310.

With SGTENKTAAGGTPSQ, the antibody binding signal is 326.

Regarding SGKDNKTAAGGTPSP, the antibody binding signal came to 465.

In turn, TEKKTATGEAPSPPG returned an antibody binding signal of 149.

PSGTDKKAAAGGTPS showed an antibody binding signal of 223.

For the sequence TENKTAAGGTPSPSG, the antibody binding signal is 539.

For the sequence GTDNKAAAGGAPSQP, the antibody binding signal turned out to be 252.

Regarding TEKKAAAGETPSPPG, the antibody binding signal is 191.
